{"source": "the supplement of paper PMC8728848", "binders": {"B1": {"name": "Epa6 (Candida glabrata), Q6DTM7_CANGB (protein)", "chain": "MGSSHHHHHHSSGLVPRGSHMKDDYSSSLSNNNLGWTDPTEFPLGCSPNVTTPKNGLSMELYSYDYLKSGSNPCWDAAYLDPNYPRTGYKSHRLLAKVENVAGNINFYYHAPMGCTSLFDTLPQAYNYRTPLTMTNFTMLLYGYFKPKVTGYHTFTISADDLLFVNFGAGNAFDCCKRESSADDFGNYQAYAVWGSQTAKDDLTVHLDAGLYYPIRIFFNNRDNDGALSLTLKTESDPNPVIDFSDYFYSFDDTKDGCPGLVSYDTS"}}, "assay_in_all_cases": "glycan array binding signal (z-score within array); higher = stronger binding", "conditions_in_all_cases": "glycan notation: IUPAC condensed, linker removed", "key": {"[1]": {"target": "Neu5Ac(a2-3)Gal(b1-3)GlcNAc6S", "method_in_brief": "(§1)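 Glycan array data came from 3228 arrays in the Consortium for Functional Glycomics database, and only arrays with an available protein sequence were kept. Glycan names were put into IUPAC-condensed notation, and columns mapping to the same glycan were averaged. The binding signal is a within-array Z-score, averaged across arrays of one protein sequence run at different concentrations or buffers and across linkers. A negative Z-score can be read as non-binding.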"}, "[2]": {"target": "Neu5Ac(a2-3)Gal(b1-3)[Fuc(a1-4)]GlcNAc", "method_in_brief": "as §1"}, "[3]": {"target": "Neu5Ac(a2-3)Gal(b1-3)[Fuc(a1-4)]GlcNAc(b1-3)Gal(b1-3)[Fuc(a1-4)]GlcNAc", "method_in_brief": "as §1"}, "[4]": {"target": "Neu5Ac(a2-3)Gal(b1-3)[Fuc(a1-4)]GlcNAc(b1-3)Gal(b1-4)[Fuc(a1-3)]GlcNAc", "method_in_brief": "as §1"}, "[5]": {"target": "Neu5Ac(a2-3)Gal(b1-3)[GlcNAc(b1-6)]GalNAc", "method_in_brief": "as §1"}, "[6]": {"target": "Neu5Ac(a2-3)Gal(b1-3)[Neu5Ac(a2-6)]GalNAc", "method_in_brief": "as §1"}, "[7]": {"target": "Neu5Ac(a2-3)Gal(b1-3)[Neu5Ac(a2-6)]GlcNAc(b1-3)[Fuc(a1-3)[Gal(b1-4)]GlcNAc(b1-6)]Gal(b1-4)Glc", "method_in_brief": "as §1"}, "[8]": {"target": "Neu5Ac(a2-3)Gal(b1-3)]Neu5Ac(a2-3)Gal(b1-4)]GlcNAc", "method_in_brief": "as §1"}, "Neu5Ac(a2-3)Gal(b1-4)Glc": {"target": "Neu5Ac(a2-3)Gal(b1-4)Glc", "method_in_brief": "as §1"}, "[9]": {"target": "Neu5Ac(a2-3)Gal(b1-4)GlcNAc", "method_in_brief": "as §1"}, "[10]": {"target": "Neu5Ac(a2-3)Gal(b1-4)GlcNAc(b1-2)Man", "method_in_brief": "as §1"}, "[11]": {"target": "Neu5Ac(a2-3)Gal(b1-4)GlcNAc(b1-2)Man(a1-3)[GlcNAc(b1-4)][Neu5Ac(a2-3)Gal(b1-4)GlcNAc(b1-2)Man(a1-6)]Man(b1-4)GlcNAc(b1-4)GlcNAc", "method_in_brief": "as §1"}, "[12]": {"target": "Neu5Ac(a2-3)Gal(b1-4)GlcNAc(b1-2)Man(a1-3)[Neu5Ac(a2-3)Gal(b1-4)GlcNAc(b1-2)Man(a1-6)]Man(b1-4)GlcNAc(b1-4)GlcNAc", "method_in_brief": "as §1"}, "[13]": {"target": "Neu5Ac(a2-3)Gal(b1-4)GlcNAc(b1-2)Man(a1-3)[Neu5Ac(a2-3)Gal(b1-4)GlcNAc(b1-2)Man(a1-6)]Man(b1-4)GlcNAc(b1-4)[Fuc(a1-6)]GlcNAc", "method_in_brief": "as §1"}, "[14]": {"target": "Neu5Ac(a2-3)Gal(b1-4)GlcNAc(b1-2)Man(a1-3)[Neu5Ac(a2-6)Gal(b1-4)GlcNAc(b1-2)Man(a1-6)]Man(b1-4)GlcNAc(b1-4)GlcNAc", "method_in_brief": "as §1"}, "[15]": {"target": "Neu5Ac(a2-3)Gal(b1-4)GlcNAc(b1-2)[Neu5Ac(a2-3)Gal(b1-4)GlcNAc(b1-4)]Man(a1-3)[GlcNAc(b1-4)][Neu5Ac(a2-3)Gal(b1-4)GlcNAc(b1-2)[Neu5Ac(a2-3)Gal(b1-4)GlcNAc(b1-6)]Man(a1-6)]Man(b1-4)GlcNAc(b1-4)GlcNAc", "method_in_brief": "as §1"}, "[16]": {"target": "Neu5Ac(a2-3)Gal(b1-4)GlcNAc(b1-2)[Neu5Ac(a2-3)Gal(b1-4)GlcNAc(b1-4)]Man(a1-3)[GlcNAc(b1-4)][Neu5Ac(a2-3)Gal(b1-4)GlcNAc(b1-4)Man(a1-6)]Man(b1-4)GlcNAc(b1-4)GlcNAc", "method_in_brief": "as §1"}, "[17]": {"target": "Neu5Ac(a2-3)Gal(b1-4)GlcNAc(b1-2)[Neu5Ac(a2-3)Gal(b1-4)GlcNAc(b1-6)]Man(a1-6)[Neu5Ac(a2-3)Gal(b1-4)GlcNAc(b1-2)Man(a1-3)]Man(b1-4)GlcNAc(b1-4)GlcNAc", "method_in_brief": "as §1"}, "[18]": {"target": "Neu5Ac(a2-3)Gal(b1-4)GlcNAc(b1-2)[Neu5Ac(a2-3)Gal(b1-4)GlcNAc(b1-6)]Man(a1-6)[Neu5Ac(a2-3)Gal(b1-4)GlcNAc(b1-2)Man(a1-3)][GlcNAc(b1-4)]Man(b1-4)GlcNAc(b1-4)GlcNAc", "method_in_brief": "as §1"}, "[19]": {"target": "Neu5Ac(a2-3)Gal(b1-4)GlcNAc(b1-3)Gal", "method_in_brief": "as §1"}, "[20]": {"target": "Neu5Ac(a2-3)Gal(b1-4)GlcNAc(b1-3)Gal(b1-3)GlcNAc", "method_in_brief": "as §1"}, "[21]": {"target": "Neu5Ac(a2-3)Gal(b1-4)GlcNAc(b1-3)Gal(b1-4)GlcNAc", "method_in_brief": "as §1"}, "[22]": {"target": "Neu5Ac(a2-3)Gal(b1-4)GlcNAc(b1-3)Gal(b1-4)GlcNAc(b1-2)Man(a1-3)[Neu5Ac(a2-3)Gal(b1-4)GlcNAc(b1-3)Gal(b1-4)GlcNAc(b1-2)Man(a1-6)]Man(b1-4)GlcNAc(b1-4)GlcNAc", "method_in_brief": "as §1"}, "[23]": {"target": "Neu5Ac(a2-3)Gal(b1-4)GlcNAc(b1-3)Gal(b1-4)GlcNAc(b1-3)Gal(b1-4)GlcNAc", "method_in_brief": "as §1"}, "[24]": {"target": "Neu5Ac(a2-3)Gal(b1-4)GlcNAc(b1-3)Gal(b1-4)GlcNAc(b1-3)Gal(b1-4)GlcNAc(b1-2)Man(a1-3)[Neu5Ac(a2-3)Gal(b1-4)GlcNAc(b1-3)Gal(b1-4)GlcNAc(b1-3)Gal(b1-4)GlcNAc(b1-2)Man(a1-6)]GalNAc", "method_in_brief": "as §1"}, "[25]": {"target": "Neu5Ac(a2-3)Gal(b1-4)GlcNAc(b1-3)Gal(b1-4)GlcNAc(b1-3)GalNAc", "method_in_brief": "as §1"}, "[26]": {"target": "Neu5Ac(a2-3)Gal(b1-4)GlcNAc(b1-3)Gal(b1-4)GlcNAc(b1-3)[Neu5Ac(a2-3)Gal(b1-4)GlcNAc(b1-3)Gal(b1-4)GlcNAc(b1-6)]GalNAc", "method_in_brief": "as §1"}, "[27]": {"target": "Neu5Ac(a2-3)Gal(b1-4)GlcNAc(b1-3)Gal(b1-4)GlcNAc(b1-6)[Gal(b1-3)]GalNAc", "method_in_brief": "as §1"}, "[28]": {"target": "Neu5Ac(a2-3)Gal(b1-4)GlcNAc(b1-3)Gal(b1-4)[Fuc(a1-3)]GlcNAc", "method_in_brief": "as §1"}, "[29]": {"target": "Neu5Ac(a2-3)Gal(b1-4)GlcNAc(b1-3)GalNAc", "method_in_brief": "as §1"}}, "note": "The other results are listed elsewhere or left out."}
{"binder": "B1", "values": [{"measurement": "glycan array binding signal (z-score)", "setting": "[1]", "value": -0.308}, {"measurement": "glycan array binding signal (z-score)", "setting": "[2]", "value": -0.329}, {"measurement": "glycan array binding signal (z-score)", "setting": "[3]", "value": -0.298}, {"measurement": "glycan array binding signal (z-score)", "setting": "[4]", "value": -0.315}, {"measurement": "glycan array binding signal (z-score)", "setting": "[5]", "value": -0.316}, {"measurement": "glycan array binding signal (z-score)", "setting": "[6]", "value": -0.273}, {"measurement": "glycan array binding signal (z-score)", "setting": "[7]", "value": -0.276}, {"measurement": "glycan array binding signal (z-score)", "setting": "[8]", "value": -0.32}, {"measurement": "glycan array binding signal (z-score)", "setting": "Neu5Ac(a2-3)Gal(b1-4)Glc", "value": -0.3}, {"measurement": "glycan array binding signal (z-score)", "setting": "[9]", "value": -0.313}, {"measurement": "glycan array binding signal (z-score)", "setting": "[10]", "value": -0.24}, {"measurement": "glycan array binding signal (z-score)", "setting": "[11]", "value": -0.309}, {"measurement": "glycan array binding signal (z-score)", "setting": "[12]", "value": -0.306}, {"measurement": "glycan array binding signal (z-score)", "setting": "[13]", "value": -0.308}, {"measurement": "glycan array binding signal (z-score)", "setting": "[14]", "value": -0.32}, {"measurement": "glycan array binding signal (z-score)", "setting": "[15]", "value": -0.344}, {"measurement": "glycan array binding signal (z-score)", "setting": "[16]", "value": -0.343}, {"measurement": "glycan array binding signal (z-score)", "setting": "[17]", "value": -0.297}, {"measurement": "glycan array binding signal (z-score)", "setting": "[18]", "value": -0.332}, {"measurement": "glycan array binding signal (z-score)", "setting": "[19]", "value": -0.336}, {"measurement": "glycan array binding signal (z-score)", "setting": "[20]", "value": -0.293}, {"measurement": "glycan array binding signal (z-score)", "setting": "[21]", "value": -0.308}, {"measurement": "glycan array binding signal (z-score)", "setting": "[22]", "value": -0.189}, {"measurement": "glycan array binding signal (z-score)", "setting": "[23]", "value": -0.315}, {"measurement": "glycan array binding signal (z-score)", "setting": "[24]", "value": -0.23}, {"measurement": "glycan array binding signal (z-score)", "setting": "[25]", "value": -0.309}, {"measurement": "glycan array binding signal (z-score)", "setting": "[26]", "value": -0.263}, {"measurement": "glycan array binding signal (z-score)", "setting": "[27]", "value": 0.082}, {"measurement": "glycan array binding signal (z-score)", "setting": "[28]", "value": -0.304}, {"measurement": "glycan array binding signal (z-score)", "setting": "[29]", "value": -0.245}]}
